Experimental data published in PMC6919601, “Identification of Plasmodium dipeptidyl aminopeptidase allosteric inhibitors by high throughput screening” (PLoS ONE, 2019).
Among all 110,000 compounds or so, about 230 (0.21%) showed an effect of 50% or more. The list shows a part of the results.

What follows are compounds tested against DPAP1 (Plasmodium falciparum, UniProt Q8IIJ9) (assay: primary screen, percent inhibition; read by cleavage of a fluorogenic dipeptide substrate; higher = more effect of the substance).
Chain of DPAP1 (Q8IIJ9 whole entry, looked up): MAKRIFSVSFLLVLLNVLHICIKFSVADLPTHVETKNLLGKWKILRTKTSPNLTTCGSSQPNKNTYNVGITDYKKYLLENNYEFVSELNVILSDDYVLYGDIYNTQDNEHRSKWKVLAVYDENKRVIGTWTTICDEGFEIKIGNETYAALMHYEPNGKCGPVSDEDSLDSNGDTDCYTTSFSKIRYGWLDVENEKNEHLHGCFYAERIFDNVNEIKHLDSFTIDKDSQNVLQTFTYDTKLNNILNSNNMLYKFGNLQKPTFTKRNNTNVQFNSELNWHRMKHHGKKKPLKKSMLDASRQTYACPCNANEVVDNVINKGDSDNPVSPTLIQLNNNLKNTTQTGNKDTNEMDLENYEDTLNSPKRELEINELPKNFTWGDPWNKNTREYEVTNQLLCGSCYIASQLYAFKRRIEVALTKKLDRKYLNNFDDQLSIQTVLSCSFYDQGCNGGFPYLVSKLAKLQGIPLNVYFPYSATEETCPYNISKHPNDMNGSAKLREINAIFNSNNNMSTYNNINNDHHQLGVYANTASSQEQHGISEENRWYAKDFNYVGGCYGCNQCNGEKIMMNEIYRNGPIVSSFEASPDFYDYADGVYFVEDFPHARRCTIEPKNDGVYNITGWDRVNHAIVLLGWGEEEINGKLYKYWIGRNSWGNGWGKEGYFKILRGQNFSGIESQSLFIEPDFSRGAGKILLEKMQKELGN
Parameters: species or system P. falciparum D10 trophozoite lysates; single well
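Further: 30 min substrate incubation versus DMSO and 10 µM JCP410 controls.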

Structure (SMILES) | % Inhibition @ 10 uM [%]
CC(C)(C)c1ccc(Oc2nc3ccccn3c(=O)c2/C=C(\C#N)C(=O)NCC2CCCO2)cc1 (stereo not shown) | 0.189
C=CC/N=C(\CCCN1C(=O)c2ccccc2C1=O)C1=C(O)CC(C)(C)CC1=O | 2.7
COc1ccc(Cl)cc1NC(=O)c1ccc(Cn2nc(C)c(Br)c2C)o1 | 2.44
N#CCNC(=O)[C@H](Cc1cn(C=O)c2ccccc12)NC(=O)c1ccc(F)cc1 | 1.35
CCN1C(=O)c2ccc(C(=O)NCc3ccc4c(c3)OCO4)cc2C1=O | -1.2
CCc1nnc(/N=C/C2=C(O)OC(C)(C)OC2=O)s1 | -5.08
COc1cc(/C=C2\SC(=N)N(c3nnc(C)s3)C2=O)ccc1OCc1ccccc1F | -7.56
CCN(Cc1ccccc1)C(=O)c1ccc(Br)cc1 | 3.48
CCc1ccc(OCC(=O)Nc2ccccc2C(N)=O)c(Br)c1 | -1.92
CCOc1ccc(S(=O)(=O)N2CCCCC2C)c2ccccc12 (stereo not shown) | 0.392
Cc1cc(/C=c2\sc3nc4ccccc4n3c2=O)c(C)n1-c1ccncc1 | 2.17
C=Cc1ccc(Cn2c(C(=O)O)c(CNCc3ccc(C)o3)c3ccc(C)cc32)cc1 | -3.88
CCN1C(=O)NC(=O)/C(=C\c2cn(CC(=O)O)c3ccccc23)C1=O | 2.09
OCCN(Cc1ccccc1)Cc1ccc(F)cc1F | -6
CCCCN(C)C(=O)c1cc2c(s1)-c1ccccc1S(=O)(=O)C2 | 2.64
CC(C)C(=O)NCCCc1nc2ccccc2n1CCc1ccccc1 | -2.28
CCCN1C/C(=C/c2ccccc2)C(=O)/C(=C/c2ccccc2)C1 | 22.6
CCOc1ccc(CSc2nc(C)cc(COC)c2C#N)cc1OCC | -4.91
CC(=O)N1CCCC1(C(=O)O)c1ccccc1 (stereo not shown) | -2.03
Cc1cc(C)n(CCc2nc3c4ccccc4nc(N4CCC(Cc5ccccc5)CC4)n3n2)n1 | 0.981
Cc1cc(C)nc(/N=C(/NC(=O)Cc2ccccc2)N2CCC(C(N)=O)CC2)n1 | 5.46
CCN(CC)S(=O)(=O)N(CC(=O)NCc1ccccc1Cl)Cc1ccc(F)cc1 | 1.62
COc1ccc(S(=O)(=O)NCc2nc(N)n(S(=O)(=O)c3ccc(OC)cc3)n2)cc1 | 2.84
CSc1ccc(-c2cccs2)nn1 | -0.822
CCCOc1nc2c(c(=O)n(C)c(=O)n2C)n1CCc1ccccc1 | 3.59

Structure (SMILES) | % Inhibition @ 10 uM [%]
O=C(O)c1cc(-c2ccc(Cl)s2)nc2ccccc12 | -2.45
COCCCNC(=O)/C(C#N)=C/c1c(Oc2cc(C)cc(C)c2)nc2ccccn2c1=O | -1.43
Clc1ccc(-c2noc3ncnc(NC4CCN(Cc5ccccc5)CC4)c23)cc1 | -2.19
OCCN(CCO)c1ncnc2c1cnn2-c1ccccc1 | 0.258
Cc1cccc(N2C(=O)CC(N3CCN(c4ccccc4Cl)CC3)C2=O)c1 (stereo not shown) | 3.69
COc1ccc(S(=O)(=O)c2c(O)nc3cc(C(=O)NCc4ccc(C)cc4)ccc3c2O)cc1 | -0.264
Cc1ccc(/C(O)=C/C=N/c2ccc(S(=O)(=O)Nc3cnc4ccccc4n3)cc2)cc1 | 0.658
O=C(CSc1nc(-c2ccc(Cl)cc2)n[nH]1)Nc1cccc(Cl)c1 | -6.7
CC(CN1CCCC(C(N)=O)C1)c1ccccc1 (stereo not shown) | 1.26
O=C(Cc1ccccc1)n1nc(-c2ccccc2)nc1NCc1ccc(F)cc1 | 3.93
N#Cc1ccc(NC(=O)c2cc3nc(C(F)F)cc(C(F)F)n3n2)cc1 | -1.89
CC(=O)NC12CC3CC(CC(O)(C3)C1)C2 | 5.43
CC(C)CC(NC(=O)c1cccc(N)c1)C(=O)NCC#N (stereo not shown) | -0.778
Cc1ccc(C2(c3ccc(C)cc3)CC2C(=O)NCc2ccccc2)cc1 (stereo not shown) | 3.25
Cn1c(=O)c2sccc2n2c(CCCC(=O)NCC3CCN(C4CCCC4)C3)nnc12 (stereo not shown) | 0.297
O=C(NCc1ccccn1)c1ccc2c(c1)OCO2 | -12.1
CCCCC(=O)Nc1cc(OC)c(Cl)cc1OC | -4.67
CC(Cc1cccc(C(F)(F)F)c1)NCc1ccco1 (stereo not shown) | -1.75
COCCCNC(=O)CN1N=C(c2ccccc2)CCC1=O | -1.21
COc1ccc2c(Cl)c(C(=O)N3CCOCC3)sc2c1Cl | 11.6
O=C(NCCCn1ccnc1)c1cc(-c2ccc(Cl)s2)nc2ccccc12 | 5.54
Cc1ccc(CCNS(=O)(=O)c2ccc3[nH]c(-c4ccccc4)nc3c2)cc1 | 5.19
CCc1ccc2ncc(S(=O)(=O)c3ccc(Cl)cc3)c(N3CCOCC3)c2c1 | -5.37
CCC(C)(O)c1nnn(-c2nonc2N)c1C(C)(O)CC (stereo not shown) | 7.5
CCOc1cc(/C=C2/SC(=O)NC2=O)cc(Br)c1O | -8.2

Structure (SMILES) | % Inhibition @ 10 uM [%]
CCOc1ccc(CN2CCSCC2)cc1 | 4.66
COc1cc(/C=C2\CCc3ccccc3C2=O)cc(OC)c1OC | 5.5
c1ccc(N2CCN(Cc3ccoc3)CC2)cc1 | -2.81
COCCCNC(=O)C1CCN(C(=O)c2sccc2-n2cccc2)CC1 | -7.02
Cc1nc2ccc3c(ccc4nc(C)sc43)c2s1 | -8.12
COc1ccc(NC(=O)/C(=C/c2ccco2)NC(=O)c2ccco2)cc1 | 1.01
N#CC1=C(N)N(c2ccccc2)C2=C(C(=O)CCC2)C1c1ccc(F)cc1 (stereo not shown) | -1.08
COc1ccc(C(=O)Nc2nc(-c3nnn(-c4cccc(C(F)(F)F)c4)c3C)ns2)cc1 | -1.2
NS(=O)(=O)c1ccc(NC(=O)COc2ccccc2)cc1 | -1.46
Cc1cc(Cl)ccc1OCC(=O)Nc1nc2nc(-c3ccccc3)cc(O)n2n1 | 3.66
CN1CCN(c2ccc(NC(=O)c3ccc(Br)o3)cc2)CC1 | -8.06
O=C(NC1CCCCC1)c1ccccc1NC(=O)C1CC1 | 3.48
CCc1ccc(Sc2cc(C(=O)NCCOC)c3ccccc3n2)cc1 | -0.0542
COc1cccc(Cn2c(C)c(CNCCc3ccco3)c(C(=O)O)c2C)c1 | -7.36
Cc1ccc(C)c(S(=O)(=O)NCc2ccc(C(=O)N3CCOCC3)cc2)c1 | -1.04
COc1ccc(C2C3=C(O)CCCC3=NC(C)=C2C(=O)Nc2ccc(F)cc2F)c(OC)c1 (stereo not shown) | -1.07
CCCNC(=O)c1ccc(CS(=O)c2ccc(Br)cc2)o1 (stereo not shown) | -6.05
CCC[C@@H](NC(=O)[C@H](CC1CCCCC1)NS(C)(=O)=O)C(=O)c1nc2ccccc2o1 | -3.49
O=C(c1ccc2c(c1)nc(S)n1c3ccccc3nc21)N1CCN(C(=O)c2ccco2)CC1 | 2.56
CCN(CC)S(=O)(=O)c1ccc(N/C=C2/C(=O)NC(=O)N(c3ccc(C)cc3)C2=O)cc1 | -1.07
COc1ccc(C(=O)N(Cc2ccccc2)c2ccccn2)cc1Cl | -5.18
COc1cccc(CNCc2cccnc2)c1OCc1ccc(F)cc1 | -2.22
CC1=CCN(C(C)(C)C)CC1=O | 5.2
CCC(=O)c1ccc(C2CCCCC2)cc1 | 1.03
CC1(C)CC(O)=C/C(=N/CCN2CCOCC2)C1 | 0.385

Structure (SMILES) | % Inhibition @ 10 uM [%]
CCOC(=O)C1=C(C)NC(=O)/C1=C\c1cccs1 | -0.267
CC(C)(C)OC(=O)NCC(=O)NCCc1nc2ccccc2[nH]1 | -0.0735
FC(F)(F)C(Oc1nc(N2CCOCC2)nc(-n2nnc3ccccc32)n1)C(F)(F)F | -4.24
Cc1cc(C)c(NC(=O)C2CCCN2C2CCCCC2)c(C)c1 (stereo not shown) | 2.94
O=c1c(CN2CCN(c3ccc(F)cc3)CC2)coc2ccccc12 | -8.28
OC1CCCN(Cc2ccccc2)C1 (stereo not shown) | -3.56
COC(=O)c1cc(=O)n(C2CCCCC2)/c(=N/C2CCCCC2)s1 | -3.45
CC(C)C[C@H](NC(=O)N1CCN(c2ccccc2O)CC1)C(=O)NCC#N | -3.48
CC(=O)N1CCN(CC(O)COc2ccc(C)cc2)CC1 (stereo not shown) | -1.06
O=C(O)/C=C/c1coc2ccc(Cl)cc2c1=O | -3.96
CCOc1ccc(C2=CC(c3cccc(OC)c3OC)n3nnnc3N2)cc1Cl (stereo not shown) | -0.125
COc1cccc(N2CCN(CC(=O)Nc3nc4c(s3)CC(C)CC4)CC2)c1 (stereo not shown) | 1.84
CC(=O)Nc1ccc2nc(C)ccc2c1 | 0.00784
Cc1ccc(S(=O)(=O)Nc2cccc3cccnc23)s1 | -2.74
Cc1ccc(-n2nc(C)c3c(-c4ccccc4)ccnc32)cc1 | 2.29
O=C(CCc1nc(CN2CCN(C(=O)c3ccc(Br)cc3)CC2)no1)N1CCOCC1 | -2.56
Cc1cc(C)cc(NC(=O)c2cccnc2Cl)c1 | 0.826
O=C(Nc1cccnc1)C1CCCN(S(=O)(=O)c2cccc3nsnc23)C1 (stereo not shown) | -6.62
COc1ccc2c(c1)C(N1CCN(CCO)CC1)Cc1cc(Cl)ccc1S2 (stereo not shown) | -9.24
O=C(NCCCN1CCOCC1)c1cc2nc(-c3cccs3)cc(C(F)(F)Cl)n2n1 | 1.92
c1ccc(-n2cccc2CNC2CCCCC2)cc1 | -6.18
CCN1C(=O)N/C(=C/c2cc(Cl)ccc2OC)C1=O | -9.24
CC(NC(=O)CCCn1ncn2c(cc3occc32)c1=O)c1ccc2c(c1)OCCO2 (stereo not shown) | -5.63
Cc1cc2c(c(SCC(=O)c3ccccc3)n1)C(=O)O/C2=C\c1c(C)[nH]c(C#N)c1C | 14.9
COc1ccc(CCNC(=O)CSC2=C(C#N)C(c3ccccc3F)CC(=O)N2)cc1 (stereo not shown) | 2.75
